In publication PMC4336329 (PLoS ONE, 2015):
Out of some 310,000 compounds screened, about 14,000 (4.5%) showed an effect of 50% or more. Effects have a minus sign here. This is one part of the list.

These compounds were tested against human ether-à-go-go-related gene (hERG) potassium channel (human, UniProt Q12809) (assay: primary screen, population patch clamp on CHO cells stably expressing hERG).
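Further: peak tail current of the secondary pulse compared with the same well before compound.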

Chain of human ether-à-go-go-related gene (hERG) potassium channel (Q12809 whole entry, looked up): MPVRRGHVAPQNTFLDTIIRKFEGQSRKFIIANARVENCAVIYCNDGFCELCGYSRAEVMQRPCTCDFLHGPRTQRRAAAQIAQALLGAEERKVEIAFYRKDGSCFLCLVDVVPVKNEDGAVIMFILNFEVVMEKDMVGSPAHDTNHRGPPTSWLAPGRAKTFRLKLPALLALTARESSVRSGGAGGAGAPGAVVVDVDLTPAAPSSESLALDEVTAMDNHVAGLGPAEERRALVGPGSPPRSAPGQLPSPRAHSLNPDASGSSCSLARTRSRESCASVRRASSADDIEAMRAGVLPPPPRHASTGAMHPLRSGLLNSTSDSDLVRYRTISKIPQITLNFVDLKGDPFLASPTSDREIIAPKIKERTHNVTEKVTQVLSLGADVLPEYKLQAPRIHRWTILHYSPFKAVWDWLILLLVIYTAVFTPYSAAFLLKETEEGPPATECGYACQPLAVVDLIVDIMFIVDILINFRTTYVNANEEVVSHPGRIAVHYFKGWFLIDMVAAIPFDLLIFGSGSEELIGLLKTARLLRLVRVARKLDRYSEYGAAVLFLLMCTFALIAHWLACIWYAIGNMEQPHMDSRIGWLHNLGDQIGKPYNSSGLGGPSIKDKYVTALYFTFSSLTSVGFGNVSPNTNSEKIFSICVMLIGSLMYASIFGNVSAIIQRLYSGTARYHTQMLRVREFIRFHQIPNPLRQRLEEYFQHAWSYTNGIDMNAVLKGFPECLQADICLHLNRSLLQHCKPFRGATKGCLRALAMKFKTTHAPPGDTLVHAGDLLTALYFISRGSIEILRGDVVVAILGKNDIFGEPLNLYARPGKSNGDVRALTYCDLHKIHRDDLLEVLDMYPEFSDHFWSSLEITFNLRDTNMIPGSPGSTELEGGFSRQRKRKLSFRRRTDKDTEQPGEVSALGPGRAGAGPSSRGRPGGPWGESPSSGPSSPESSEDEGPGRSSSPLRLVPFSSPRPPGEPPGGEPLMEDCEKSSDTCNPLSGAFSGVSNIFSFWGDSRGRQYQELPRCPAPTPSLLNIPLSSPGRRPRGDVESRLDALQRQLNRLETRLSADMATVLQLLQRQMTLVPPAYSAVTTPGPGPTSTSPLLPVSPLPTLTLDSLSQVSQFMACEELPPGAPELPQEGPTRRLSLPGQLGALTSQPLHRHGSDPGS

First: Cc1ccc(C(=O)N2CCCC2)cc1S(=O)(=O)Nc1ccccc1
Second: Cc1ccccc1NC(=S)N(CCN1CCCCC1)Cc1ccco1
The “hERG current change (%, negative = inhibition) at 10uM” value of the first is higher: -14.7% for the first, -30.2% for the second.

Compared with `CC(=O)N1N=C(c2ccccc2)CC1c1cccc([N+](=O)[O-])c1` (centres unmarked), `O=[N+]([O-])c1ccc(CN2C=NS(=O)(=O)c3ccccc32)cc1` is higher in “hERG current change (%, negative = inhibition) at 10uM” value: -27.3% for the first, -13.5% for the second.

First: O=C(Nc1ccc(N=Nc2ccccc2)cc1)c1ccc(Cl)cc1Cl
Second: O=C(CNCc1ccccc1)Nc1ccc(Cl)cc1
The “hERG current change (%, negative = inhibition) at 10uM” value of the first is higher: 8.91% for the first, 3.34% for the second.

Compared with `Cc1cc(C)cc(N(CCC#N)C(=O)COC(=O)C2=COCCO2)c1`, `CCOc1ncccc1C(=O)OCC(=O)Nc1c(C)cc(C)cc1C` is lower in “hERG current change (%, negative = inhibition) at 10uM” value: 2.59% for the first, -1.23% for the second.

First: CCO[C@@H]1OC(C(=O)Nc2ccccc2)=C[C@H](C)[C@H]1CCCO
Second: CCOc1ccccc1NC(=O)CSc1nnnn1Cc1ccccc1
The “hERG current change (%, negative = inhibition) at 10uM” value of the first is higher: 1.08% for the first, -40.5% for the second.

Compared with `CCCc1nc2oc3c(=O)[nH]cnc3c2c2c1COC(C)(C)C2`, `CCOC(=O)c1c(C)n(C)c2ccc(O)c(CN3CCN(C)CC3)c12` is lower in “hERG current change (%, negative = inhibition) at 10uM” value: 11.9% for the first, -3.46% for the second.

First: CC(Oc1cc(Cl)ccc1Cl)C(=O)N/N=C\c1ccnn1C (centres unmarked)
Second: O=[N+]([O-])c1cc(Cl)ccc1Sc1ccccn1
The “hERG current change (%, negative = inhibition) at 10uM” value of the first is lower: -9.88% for the first, 3.65% for the second.

Going from `COC(=O)c1ccsc1NC(=O)CSc1nnnn1-c1ccccc1SC` to `COc1ccc(-c2nc(NC(=O)CSc3nnc4ccccn34)ns2)cc1`, the “hERG current change (%, negative = inhibition) at 10uM” value rises from -8.01% to -2.77%.

Compared with `O=C(NNC(=O)c1cc(F)c(F)cc1Cl)c1ccc(NS(=O)(=O)c2cccs2)cc1`, `O=C(Nc1ncc(Cc2cccc(Cl)c2Cl)s1)c1ccc([N+](=O)[O-])cc1` is lower in “hERG current change (%, negative = inhibition) at 10uM” value: 12.2% for the first, -6.54% for the second.

Compared with `COc1ccc(CNCc2cc(OC)ccc2OC)cc1.O=C(O)C(=O)O`, `COc1ccc(C(=O)Oc2cccnc2)cc1` is higher in “hERG current change (%, negative = inhibition) at 10uM” value: -30.3% for the first, -1.5% for the second.

Compared with `O=C(NC1CCCC1)c1ccc(CSCc2ccccc2F)o1`, `O=C(Cc1ccccc1)NNC1=NS(=O)(=O)c2ccccc21` is higher in “hERG current change (%, negative = inhibition) at 10uM” value: -27.4% for the first, 8.68% for the second.

Going from `CCc1nnc(NC(=O)c2ccc(S(=O)(=O)N(CCOC)CCOC)cc2)o1` to `O=C(Nc1nnc(C2CC2)o1)c1ccc(S(=O)(=O)N2CCCCC2)cc1`, the “hERG current change (%, negative = inhibition) at 10uM” value falls from 8.22% to 7.44%.

Compared with `O=C(COC(=O)c1cccc(S(=O)(=O)N2CCc3ccccc32)c1)NC1CCS(=O)(=O)C1` (centres unmarked), `CN(c1ccccc1)S(=O)(=O)c1cccc(NC(=O)COc2ccccc2)c1` is lower in “hERG current change (%, negative = inhibition) at 10uM” value: -6.28% for the first, -19.7% for the second.

Compared with `O=C1CCCN1c1ncc(S(=O)(=O)c2ccc([N+](=O)[O-])cc2)s1`, `COc1ccc(NC(=O)CN2C(=O)NC(C)(c3ccc(C)cc3)C2=O)c([N+](=O)[O-])c1` (centres unmarked) is lower in “hERG current change (%, negative = inhibition) at 10uM” value: 2.67% for the first, -5.16% for the second.

Compared with `COC(=O)C1CCN(c2cc(=O)n(C3CCCCC3)c(=O)[nH]2)CC1`, `COC(=O)c1c(NC(=O)C2CCCCC2)sc2c1CCN(C(C)C)C2.Cl` is lower in “hERG current change (%, negative = inhibition) at 10uM” value: -2.99% for the first, -16.5% for the second.

First: CCc1ccc(CNCCSc2nnnn2C)cc1.Cl
Second: CCCCn1c(SCc2nc3ccccc3s2)nc2cc(S(N)(=O)=O)ccc21
The “hERG current change (%, negative = inhibition) at 10uM” value of the first is higher: -20.4% for the first, -37.5% for the second.

Compared with `CC(O)Cn1cnc2c1c(=O)n(C)c(=O)n2C` (centres unmarked), `CC(C)CCN1C(=O)c2ccc(C(=O)Nc3cccc(S(N)(=O)=O)c3)cc2C1=O` is higher in “hERG current change (%, negative = inhibition) at 10uM” value: 0.931% for the first, 7.64% for the second.

Going from `O=C(NCCCN1CCOCC1)c1ccc(Cl)cc1[N+](=O)[O-]` to `Cc1cccc2cc(C#N)c(N3CCN(C)CC3)nc12`, the “hERG current change (%, negative = inhibition) at 10uM” value falls from 15.5% to -46%.

Compared with `CC(NCc1ccncc1)C12CC3CC(CC(C3)C1)C2.Cl` (centres unmarked), `Cc1ccc(NC(=O)CC2S/C(=N/N=C3/NC(=O)CS3)NC2=O)cc1` (centres unmarked) is higher in “hERG current change (%, negative = inhibition) at 10uM” value: -14.3% for the first, 19.5% for the second.

First: C/C(=N\NC(=O)c1ccc(C)cc1)C1C(=O)c2ccccc2C1=O
Second: Cc1ccc2cc(NC(=O)CC(CC(=O)O)c3ccccc3)ccc2n1 (centres unmarked)
The “hERG current change (%, negative = inhibition) at 10uM” value of the first is lower: 15.8% for the first, 18.2% for the second.

Compared with `COc1ccc(/C=C/C(=O)N(C)C2(C)CCS(=O)(=O)C2)cc1` (centres unmarked), `O=c1[nH]c(/C=C/c2ccccc2)c([N+](=O)[O-])c(=O)[nH]1` is higher in “hERG current change (%, negative = inhibition) at 10uM” value: -3.05% for the first, 5.45% for the second.

Going from `Cc1cccc(OCC(O)CN2CCN(c3ccccn3)CC2)c1C.Cl` (centres unmarked) to `O=C(CSc1nnc(-c2cccs2)n1-c1ccccc1)c1ccc2c(c1)OCCO2`, the “hERG current change (%, negative = inhibition) at 10uM” value rises from -45.5% to 2.84%.
